Several values for one entry are separate records, joined by “and”; a condition that tells them apart may be missing. Equal entries are not always repeated. Hit rate of the full screen: of about 310,000 compounds, about 18,000 (5.8%) were called active. Inconclusive means that the source gave no clear call. Such entries were picked first, then a sample of the others. The call rests on the fitted dose curve; in most records, active means well fitted inhibition curve with a large enough effect; inconclusive means small, poorly fitted or top-dose-only effect, or another doubt; inactive means no such curve, though single readings can be large or run the other way. Potencies of inconclusive entries are doubtful fits and often do not repeat.
Experiment: Primary qHTS for delayed death inhibitors of the malarial parasite plastid, 48 hour incubation
Details: P. falciparum luciferase growth in erythrocytes; series mostly up to 28.7 µM
Method in brief: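 Here the parasites carry a stable luciferase gene and grow inside erythrocytes in Albumax-based RPMI medium with compound for one erythrocytic cycle. Activity is scored as loss of luminescent signal.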
On the % scale 0 is the no-effect control and ±100 the full control effect; potency means the concentration at half of the fitted maximal effect; tags describe the fitted curve by direction and shape.

Compound	Potency	activity change, negative = inhibition
Cc1cc2cc(C)c3nnc(SCC(=O)N4CCc5ccccc54)n3c2cc1C	inactive	
CCOc1ccc(/C=C2\SC(=S)N(CCC(=O)O)C2=O)cc1	inconclusive: 2.94 µM [inhibitor, partial curve, poor fit]	
COc1ccc(-c2c[n+]3c(n2-c2ccccc2)SCC3)cc1OC	active: 1.31 µM	
CN(Cc1ccccc1)C(=O)CN1C(=O)NC(C)(c2ccc(Cl)cc2)C1=O (configuration not stated)	inactive	
Cc1ccc(-c2noc(CN3CCN(C(c4ccccc4)c4ccccc4)CC3)n2)cc1	inconclusive: 18.5 µM [inhibitor, single point]	
CN1CCN(C(=O)C23CC4CC(C2)CC(c2ccccc2)(C4)C3)CC1	inconclusive: 9.28 µM [inhibitor, single point]	
O=C(c1cccc(C(F)(F)F)c1)C1CCCN(C(=O)CCCn2cncn2)C1 (configuration not stated)	inactive	
NC(=O)c1ccccc1OC1CCC1	inactive	
COCC1CCN(C(=O)CCc2nnc(C3(c4ccc(Cl)cc4)CCC3)o2)CC1	inconclusive: 18.5 µM [inhibitor, single point]	
COc1ccc(C(CNC(=O)c2ccc(OCc3ccccc3)cc2)N2CCOCC2)cc1 (configuration not stated)	inconclusive: 7.38 µM [inhibitor, partial curve]	
CC(C)CN(C(=O)c1ccc(N2CCCC2=O)cc1)c1c(N)n(Cc2ccccc2)c(=O)[nH]c1=O	inconclusive: 11.7 µM [inhibitor, partial curve, poor fit]	
CN(C)c1nc(N)c2ncc(=S)[nH]c2n1		inactive: 3.22% [at 5.75 µM]
COc1ccc(-n2nc3c(N4CCC(C(=O)NCC(C)c5ccccc5)CC4)nnc(C)c3c2C)cc1 (configuration not stated)	inconclusive: 11.7 µM [inhibitor, single point]	
N#Cc1ccc(CSc2nnc(-c3c[nH]c4ccccc34)n2-c2ccccc2)cc1	inconclusive: 13.1 µM [inhibitor, single point]	
CCOC(=O)c1sc2nc(C)nc(NCc3ccc(Cl)cc3)c2c1C	active: 9.28 µM	
CCCS(=O)(=O)N1CCC(C(=O)NCCc2ccccc2)CC1	inactive	
Cc1ccc(NC(=O)CSCC(=O)N(C)CC(=O)Nc2cccc3ccccc23)cc1	inconclusive: 0.0738 µM [inhibitor, full curve, poor fit]	
C#CCOCCOCCOCCNc1nc(N2CCN(C(=O)[C@H]([C@@H](C)O)n3cc(CCCCN)nn3)CC2)nc(N2CCN(C(=O)[C@H](CCCCN)n3cc(CC(C)O)nn3)CC2)n1 (some centres not stated)	inactive	
CNC(=O)c1sc(N2N=C3/C(=C/c4ccccc4)CCCC3C2c2ccccc2)nc1C (configuration not stated)	inconclusive: 4.15 µM [inhibitor, partial curve]	
CSCCCNC(=O)c1ccc(OC2CCN(CCc3ccccc3)CC2)cc1	inconclusive: 9.28 µM [inhibitor, partial curve, poor fit]	
CCN(CC)C(=O)CSc1nc2ccccc2c(=O)n1CC1CCCCC1	active: 4.15 µM	
CC(C)c1nc2sc3c(SCC(N)=O)ncnc3c2c2c1CCC2	inactive	
O=S(=O)(c1ccc(Cl)cc1)N1CCN(C(=S)Nc2ccc(F)c(Cl)c2)CC1	active: 0.657 µM	

Compound	Potency	activity change, negative = inhibition
COc1ccccc1N1CCN(C(=O)c2cn(Cc3ccccc3)nc2-c2cccnc2)CC1	inconclusive: 18.5 µM [inhibitor, single point]	
O=C(CSc1ccccc1)Nc1ccc(S(=O)(=O)Nc2ncccn2)cc1	inconclusive: 4.15 µM [inhibitor, partial curve, poor fit]	
O=C(Cc1cccs1)N1CCN(S(=O)(=O)c2cc(Cl)ccc2Cl)CC1	inconclusive: 11.7 µM [inhibitor, partial curve]	
O=C(NCC(c1ccco1)N1CCCC1)c1cc(S(=O)(=O)N2CCOCC2)ccc1Cl (configuration not stated)	inconclusive: 9.28 µM [inhibitor, single point]	
COc1cc(NC(=O)[C@@H](NC(=O)N2CCn3c2nc2ccccc23)C(C)C)cc(OC)c1	inconclusive: 20.8 µM [inhibitor, partial curve, poor fit]	
CC(C)(C)OC(=O)N1CCC(Cc2cc(-c3cccnc3)no2)(C(=O)O)CC1	inactive	
COc1ccc(CN2CCC(=O)N([C@H](CO)Cc3ccccc3)CC2)cc1OC	inconclusive: 3.29 µM [inhibitor, partial curve, poor fit]	
CCOC(=O)c1ccc(NC(=S)N2CCN(CCN=CC3=C(O)CC(c4ccccc4)CC3=O)CC2)cc1 (configuration not stated)	inconclusive: 2.62 µM [inhibitor, partial curve, poor fit]	
CC1=CC(=C(c2ccc(N)cc2)c2ccc(N)cc2)C=CC1=N	active: 2.39 µM	
COc1cccc(NC(=O)CN(C)C(=O)c2c(-c3c(F)cccc3Cl)noc2C)c1	inconclusive: 5.86 µM [inhibitor, partial curve]	
O=c1c2ccccc2c(-c2ccccc2)nn1Cc1ccc(Cl)cc1	inconclusive: 0.262 µM [inhibitor, full curve, poor fit]	
COc1ccc(Cc2nnc(N/N=C/c3ccc(O)cc3O)[nH]c2=O)cc1OC	active: 4.15 µM	
O=C(/C=C/c1ccc(OC(F)F)cc1)Nc1cccc(S(=O)(=O)NC2=NCCCCC2)c1	inactive	
COc1ccc(NC(=O)CN(C)C(=O)Cc2ccc3c(c2)OCCO3)cc1	inconclusive: 16.5 µM [inhibitor, single point]	
Cc1cccc(NC(=O)C2(c3ccccc3)CCOCC2)c1	inconclusive: 16.5 µM [inhibitor, single point]	
CN(C)CCNC(=O)C(c1ccccc1)c1ccccc1	inconclusive: 13.1 µM [inhibitor, single point]	
CCN(CC)CCCN(Cc1cc2cc3c(cc2[nH]c1=O)OCCO3)C(=O)Nc1ccccc1	active: 10.4 µM	
CCOc1ccccc1NCc1cc(=O)oc2cc(C)c(O)cc12	inconclusive: 13.1 µM [inhibitor, single point]	
CC(=O)Nc1ccc(S(=O)(=O)N2CCN(S(=O)(=O)c3ccccc3)CC2)cc1	inconclusive: 10.4 µM [inhibitor, partial curve, poor fit]	
Cc1nn(Cc2ccc(F)cc2)c(C)c1NC(=O)c1cnn2c1NC(c1cccs1)CC2C(F)(F)F (configuration not stated)	inconclusive: 18.5 µM [inhibitor, single point]	
COc1ccc(SCCN2CC[C@@H](C(C)(C)C)CCC2=O)cc1	inactive	
CCc1nnc(SCC(=O)Nc2ccc3c(c2)OCO3)n1CC	inactive	
CCCCN1CC(O)=C(c2nc(-c3ccc(Br)cc3)cs2)C1=N	inconclusive: 1.47 µM [inhibitor, partial curve, poor fit]	

Compound	Potency	activity change, negative = inhibition
O=C(CSc1n[nH]c(=O)n1C1CC1)NCc1ccccc1	inconclusive: 18.5 µM [inhibitor, single point]	
CC(OC(=O)C1CC1C)C(=O)Nc1ccc(Cl)cn1 (configuration not stated)	inconclusive: 11.7 µM [inhibitor, partial curve, poor fit]	
COC(=O)c1c(-c2ccccc2OC)sc2ccc(OC)cc12	inconclusive: 13.1 µM [inhibitor, single point]	
COc1ccc(CCC(=O)N2CCCc3ccccc32)cc1	inactive	
COc1ccc(C(=O)NNC(=S)NC(=O)c2ccco2)cc1	inconclusive: 11.7 µM [inhibitor, single point]	
COc1cc(NC(=O)c2nccn2C)cc(C(=O)Nc2cccc(C(F)(F)F)c2)c1	inactive	
CCC(C)NC(=O)Cn1cc(S(=O)(=O)N2CCN(c3ccccc3F)CC2)c2ccccc2c1=O (configuration not stated)	inconclusive: 14.7 µM [inhibitor, single point]	
COCCOC(=O)C1=C(C)NC2=C(C(=O)CC(C)(C)C2)C1c1ccc(N(C)C)cc1 (configuration not stated)	inconclusive: 11.7 µM [inhibitor, single point]	
CC(C)Cc1ccc(CN2CCCC(NC(=O)c3ccoc3)C2)cc1 (configuration not stated)	active: 10.4 µM	
CC(NC(=O)C1CSC2(C)CCC(=O)N12)c1ccccc1Cl (configuration not stated)	inactive	
Cc1sc2nc(C3CCCCC3)nc(SCC(=O)N3CC(=O)Nc4ccccc43)c2c1C	inconclusive: 2.08 µM [inhibitor, full curve]	
CCOC(=O)C1CCN(C(=O)COC(=O)c2nn(C)c(=O)c3ccccc23)CC1	inactive	
Nc1nonc1-c1nc2ccccc2n1CC(=O)N1CCN(c2ccc(F)cc2)CC1	inconclusive: 11.7 µM [inhibitor, single point]	
COc1ccc(NC(=O)c2ccc(C(=O)c3cc(OC)ccc3OC)cc2)cc1	inactive	
COc1ccccc1CN(Cc1nc2ccccc2c(=O)[nH]1)C(=O)Nc1ccccc1C	inconclusive: 13.1 µM [inhibitor, single point]	
N[C@@H](Cc1ccc(N(CCCl)CCCl)cc1)C(=O)O	inconclusive: 12 µM [inhibitor, single point] and inconclusive: 18.5 µM [inhibitor, single point]	
NCC(c1ccco1)c1c[nH]c2ccccc12 (configuration not stated)	inconclusive: 11.7 µM [inhibitor, single point]	
Fc1cccc(Cl)c1Cn1nnc2c(-n3ccnc3)ncnc21	inconclusive: 18.5 µM [inhibitor, single point]	
O=C1NC(=O)C(=Cc2csc3ccccc23)C(=O)N1	inconclusive: 1.65 µM [inhibitor, partial curve, poor fit]	
O=C(c1ccco1)N1CCN(C(=O)c2sccc2-c2ccccc2)CC1	inconclusive: 13.1 µM [inhibitor, single point]	
Cc1ccc(Nc2nc(N/N=C/c3c[nH]c4ccccc34)nc(N3CCOCC3)n2)cc1	inconclusive: 18.5 µM [inhibitor, single point]	

From PubChem BioAssay AID504832 (National Center for Advancing Translational Sciences (NCATS), 2011)
